Among all 260,000 compounds or so, about 890 (0.34%) were called active. This list was built around the results that the source calls inconclusive (neither active nor inactive); the mix of calls is not that of the screen. Calls follow the shape of the dose curve; as a rule, active = well fitted activation curve with a large enough effect; inconclusive = small, poorly fitted or top-dose-only effect; inactive = no such curve, though single readings can be large or run the other way. No potency is given beside an inconclusive call; the fits are too rough.
These compounds were tested against Pyruvate kinase PKM (Homo sapiens) (UniProt P14618) (assay: qHTS Assay for Activators of Human Muscle isoform 2 Pyruvate Kinase). Details: purified PKM2, Kinase-Glo ATP luminescence; Potency: activation; activation: at 57.5 µM (top of the series), 0% is enzyme alone, no compound.
UniProt P14618, sequence (P14618 whole entry, looked up, canonical isoform): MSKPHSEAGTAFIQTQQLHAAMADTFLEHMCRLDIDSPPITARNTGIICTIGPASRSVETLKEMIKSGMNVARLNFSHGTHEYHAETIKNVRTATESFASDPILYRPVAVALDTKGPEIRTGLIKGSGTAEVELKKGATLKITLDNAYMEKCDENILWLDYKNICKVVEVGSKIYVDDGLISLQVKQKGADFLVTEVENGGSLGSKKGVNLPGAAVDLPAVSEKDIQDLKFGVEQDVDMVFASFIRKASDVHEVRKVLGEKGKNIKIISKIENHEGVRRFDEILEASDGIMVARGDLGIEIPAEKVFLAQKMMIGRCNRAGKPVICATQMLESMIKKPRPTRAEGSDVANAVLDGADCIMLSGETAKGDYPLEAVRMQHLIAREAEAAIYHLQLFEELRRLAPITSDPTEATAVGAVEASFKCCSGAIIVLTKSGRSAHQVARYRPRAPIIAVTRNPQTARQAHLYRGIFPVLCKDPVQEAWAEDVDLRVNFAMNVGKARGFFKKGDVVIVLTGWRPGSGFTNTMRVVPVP
In short: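 Kinase-Glo luminescence reports ATP generated from ADP (0.1 mM) and PEP (0.5 mM) by purified hPK-M2 after 1 h at room temperature, pH 7.2 imidazole buffer; intermediate enzyme activity allows detecting inhibitors and activators.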
In the case of COc1ccc2c(=O)cc(C(=O)O)oc2c1, the “activation” value is reported as inactive: -23.6%.
With Cc1nc(-c2ccc(Cl)cc2)sc1C1(C)CC(c2ccc(F)cc2)=NO1 (stereo not given) the Potency was inconclusive [rising, single point].
In the case of O=C1C(=O)N(CCCc2ccccc2)c2ccccc21, the Potency is reported as inconclusive [rising, single point].
For CC(NC(=O)Cc1cccs1)c1ccccc1 (stereo not given), the Potency was inconclusive [rising, single point].
N#C/C(=C/c1ccc(N2CCCCCC2)o1)c1ccc(Cl)cc1 was tested, and the Potency was inconclusive [rising, partial curve].
In the case of Cn1ncc([N+](=O)[O-])c1C(=O)Nc1ccc(-c2ccccc2)cc1, the Potency is reported as inconclusive [rising, partial curve, poor fit].
CC(C)CC(=O)Nc1nnc(S(=O)(=O)N2c3ccccc3CC2C)s1 (stereo not given) was tested, and the Potency was inconclusive [rising, single point].
For COc1ccc(Cc2nc(-c3ccc(-n4cccc4)cc3)no2)cc1OC, the Potency was inconclusive [rising, single point].
In the case of O=S(=O)(NCCNc1nccc(C(F)(F)F)n1)c1ccccc1, the Potency is reported as active: 17.8 µM.
O=C(CSc1nc2scc(-c3ccco3)c2c(=O)n1-c1ccccc1)NCC1CCCO1 (stereo not given) was tested, and the Potency was inconclusive [rising, partial curve].
For O=C(CCCOc1ccccc1)N1CCN(S(=O)(=O)c2cccs2)CC1, the Potency was inconclusive [rising, partial curve].
Cc1ccc(-c2nc(S(=O)(=O)c3ccc(C)cc3)c(N(C)C)o2)cc1 was tested, and the “activation” value was inactive: 6.1%.
O=C1C(Cl)=C(Nc2ccccc2O)C(=O)N1CCc1ccccc1 was tested, and the Potency was inconclusive [rising, partial curve].
In the case of COc1ccc(S(=O)(=O)c2nnn(-c3cccc(Cl)c3)c2N)cc1, the Potency is reported as inconclusive [rising, partial curve].
In the case of COc1ccc(CNC(=O)C(C#N)c2nc3ccccc3nc2N2CCN(C)CC2)cc1 (stereo not given), the Potency is reported as inconclusive [rising, single point].
In the case of CCOC(=O)C1=C(N)OC2=C(C(=O)CCC2)C1c1cccs1 (stereo not given), the Potency is reported as inconclusive [rising, partial curve].
In the case of Cc1ccc(OCCC(=O)NCCc2ccc(S(N)(=O)=O)cc2)cc1, the “activation” value is reported as inactive: 2.5%.
With COc1ccc(S(=O)(=O)c2ccc(OCC3CO3)cc2)cc1 (stereo not given) the Potency was inconclusive [rising, partial curve].
CN(C)c1cc[n+](CC(=O)Nc2ccc([N+](=O)[O-])cc2Cl)cc1 was tested, and the “activation” value was inactive: 1.78%.
With O=C(/C=C/c1ccccc1Cl)Nc1cccc(O)c1 the Potency was inconclusive [rising, partial curve].
For Cc1onc(-c2c(F)cccc2Cl)c1C(=O)NCc1ccccc1, the activation was inactive: 2.71% [at 11.5 µM, 0% is enzyme alone, no compound].
With Cc1nnsc1C(=O)Nc1ccc(S(=O)(=O)N2CCCC(C)C2)cc1 (stereo not given) the activation was inactive: -0.784% [at 0.46 µM, 0% is enzyme alone, no compound].
O=C(c1c(F)cccc1Cl)N1CCN(S(=O)(=O)c2ccc3c(c2)OCCCO3)CC1 was tested, and the Potency was inconclusive [rising, full curve].
NC(=O)C1CCN(C2=C(Cl)C(=O)c3ccccc3C2=O)CC1 was tested, and the Potency was inconclusive [rising, partial curve].
O=C(NCCC1=CCCCC1)NC12CC3CC(CC(C3)C1)C2 was tested, and the “activation” value was inactive: 9.41%.
For CC(C)(C)OC(=O)N1CCC(c2cc(=O)n3[nH]cc(C(=O)NC4CCCC4)c3n2)CC1, the “activation” value was inactive: 3.04%.
In the case of COc1cccc(NC(=O)CCN2C(=O)c3ccc([N+](=O)[O-])cc3C2=O)c1, the Potency is reported as inconclusive [rising, single point].
For Cn1c(=O)c(=O)n(C)c2cc(S(=O)(=O)N3CCc4ccccc43)ccc21, the Potency was active: 2 µM.
COc1cc(C(=O)NCC(=O)OCc2ccccc2Cl)cc(OC)c1OC was tested, and the Potency was inconclusive [rising, single point].
CCc1c(C)sc(NC(=S)Nc2nc(C)cc(C)n2)c1C(=O)OC was tested, and the “activation” value was inactive: 0.591%.
With COCC(C)n1c(C)cc(C(=O)CSc2nnnn2-c2ccc(O)cc2)c1C (stereo not given) the Potency was inconclusive [rising, partial curve].
For O=C(CSc1ncn[nH]1)c1cccc([N+](=O)[O-])c1, the “activation” value was inactive: -1.35%.
In the case of O=C(OCC(O)CN1CCCCC1)C12CC3CC(CC(C3)C1)C2 (stereo not given), the Potency is reported as inconclusive [rising, single point].
With O=C(CCCN1C(=O)/C(=C/c2ccccc2)SC1=S)Nc1cccc(O)c1 the Potency was inconclusive [rising, partial curve].
In the case of CN(C)CCCN(C(=O)c1ccc2c(c1)OCCO2)c1nc2ccc(Cl)cc2s1, the “activation” value is reported as inactive: 0.0633%.
For CCOc1ccc(C(C)=O)cc1CSc1nnnn1-c1ccc(O)cc1, the Potency was inconclusive [rising, partial curve].
Cc1nnc(SCc2nc3scc(-c4ccccc4)c3c(=O)[nH]2)s1 was tested, and the Potency was active: 28.2 µM.
For CC(C)(C)C(=O)Nc1ccc(Oc2ccc3c(c2)C(=O)N(c2ccc(O)cc2)C3=O)cc1, the Potency was inconclusive [rising, partial curve].
In the case of Cc1ccc(-c2nn(-c3ccccc3)cc2/C=C(\C#N)c2cccc(C#N)c2)o1, the Potency is reported as inconclusive [rising, partial curve].
In the case of O=C(NCCN1CCN(c2ccccc2)CC1)Nc1cccc(Cl)c1, the Potency is reported as inconclusive [rising, full curve, poor fit].
In the case of CC(=O)Nc1nnc(-c2ccccn2)o1, the Potency is reported as inconclusive [rising, single point].
Cn1ccnc1SCC(=O)NC1CCCCC1 was tested, and the “activation” value was inactive: -16.1%.
For O=C(O)c1ccc(/C=N/Nc2cccc(C(F)(F)F)c2)cc1, the “activation” value was inactive: -1.31%.
O=C(Cc1ccc2c(c1)OCCO2)N1CCN(S(=O)(=O)c2ccccc2C(F)(F)F)CC1 was tested, and the Potency was inconclusive [rising, full curve].
In the case of COc1ccccc1N1CCN(S(=O)(=O)c2cnc[nH]2)CC1, the Potency is reported as inconclusive [rising, full curve, poor fit].
CSc1nc2ccc(NC(=O)C3CCCO3)cc2s1 (stereo not given) was tested, and the Potency was inconclusive [rising, single point].
For COc1ccc(-n2c(-c3ccc(Cl)cc3Cl)n[nH]c2=S)c(OC)c1, the “activation” value was inactive: 0.96%.
NC(=O)CC(NC(=O)c1ccccc1)c1ccc(NCc2ccc(F)c(F)c2)c([N+](=O)[O-])c1 (stereo not given) was tested, and the Potency was inconclusive [rising, single point].
In the case of COc1ccc2cc(C(c3nnnn3Cc3ccccc3)N3CCCCCC3)c(=O)[nH]c2c1 (stereo not given), the Potency is reported as inconclusive [rising, partial curve].
For O=C(COc1ccccc1[N+](=O)[O-])N/N=C/C=C/c1ccco1, the Potency was inconclusive [rising, partial curve].
CCN(CC)c1cc(NCCO)c([N+](=O)[O-])c2nonc12 was tested, and the “activation” value was inactive: -11.9%.
For CCOC(=O)CNS(=O)(=O)c1cc(-c2nn(C)c(=O)c3ccccc23)ccc1C, the Potency was inconclusive [rising, partial curve, poor fit].
In the case of COc1cccc(OCCSc2nc(N)cc(N)n2)c1, the “activation” value is reported as inactive: 7.13%.
For Cc1nn(C)c(C)c1CN(Cc1nc(-c2ccc(F)cc2F)oc1C)C1CC1, the Potency was inconclusive [rising, full curve].
In the case of CCOC(=O)C(NC(=O)c1cccc(Cl)c1)(OCc1ccc(F)cc1)C(F)(F)F (stereo not given), the “activation” value is reported as inactive: -16.7%.
With COc1ccccc1N/C=C/C(=C(C#N)C#N)N(C)C the Potency was inconclusive [rising, single point].
With COc1ccc(-c2nnc3sc(-c4ccccn4)nn23)cc1 the “activation” value was inactive: -11.9%.
With CC(=O)Nc1sc(N/N=C\c2ccccc2F)nc1-c1cccs1 the Potency was inconclusive [rising, partial curve].
In the case of COC(=O)CCCCCCCC(=O)Nc1nnc(C(F)(F)F)s1, the Potency is reported as inconclusive [rising, partial curve].
O=C(CNCc1ccccn1)Nc1ccc([N+](=O)[O-])cc1C(=O)Nc1ccccc1F was tested, and the “activation” value was inactive: 0.0707%.
Cc1ccc2cc(C#N)c(N3CCCC3)nc2c1C was tested, and the Potency was inconclusive [rising, single point].
Cc1cc2ccccc2n1CCNC(=O)c1ccccc1 was tested, and the Potency was inconclusive [rising, partial curve].
With Cc1ccc(CNC(=O)C2CCN(S(=O)(=O)c3cccs3)CC2)cc1 the Potency was inconclusive [rising, partial curve].
With O=C(Nc1ccc(F)cc1)N1CCCN(c2nccc(C(F)(F)F)n2)CC1 the Potency was inconclusive [rising, single point].
With Oc1ccc(NCc2ccccc2OCc2ccccc2F)cc1 the Potency was inconclusive [rising, single point].
In the case of O=C(Nc1cccc(-c2cn3ccsc3n2)c1)c1ccccc1, the Potency is reported as inconclusive [rising, partial curve].
With COC(=O)N1[C@H](C)C=C[C@]1(Cc1ccccc1)C(=O)NCc1ccc(C)o1 the Potency was inconclusive [rising, partial curve].
In the case of Cc1onc(-c2c(F)cccc2Cl)c1C(=O)Nc1c(C)n(C)n(-c2ccccc2)c1=O, the Potency is reported as inconclusive [rising, single point].
For N#C/C(=C\c1ccc(O)c(Br)c1)C(=O)N1CCCCC1, the Potency was inconclusive [rising, single point].
For C/C(=N\NC(=O)c1cccc(N/N=C(\C)c2cc(O)ccc2O)c1)c1cc(O)ccc1O, the Potency was inconclusive [rising, partial curve].

Source: PubChem BioAssay AID1631 (National Center for Advancing Translational Sciences (NCATS), 2009)
% is scaled to controls: 0 for no effect and ±100 for the full control effect; potency is read from the fitted curve at half-maximal effect; tags tell the direction and shape of the fitted curve.
Also: nearly all actives have a fitted effect of over 55% in size.
